Test results reported in PubChem BioAssay AID493208 (National Center for Advancing Translational Sciences (NCATS), 2011).
The campaign covered roughly 44,000 compounds. About 340 (0.77%) were called active. Not shown: some 5% with an inconclusive outcome. Calls come from the whole dose curve; as a rule, active = well fitted inhibition curve with a large enough effect; inconclusive = small, poorly fitted or top-dose-only effect; inactive = flat fitted curve, though single readings scatter. The list shows a part of the results.

Experiment: Acumen qHTS Assay for Inhibitors of the mTORC1 Signaling Pathway in MEF (Tsc2-/-, p53-/-) Cells: Sytravon; note: nearly all actives have a fitted effect of over 50% in size;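 for activity change, negative = inhibition: plate controls were DMSO for no effect and rapamycin for full effect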
Conditions: phospho-rpS6 immunofluorescence/PI, 24 h; series mostly up to 38.3 µM; activity change, negative = inhibition: at the top concentration
Procedure, shortened: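 Immunofluorescence of rpS6 phosphorylation in Tsc2-/-, p53-/- MEFs after 24 h compound exposure, normalized to propidium iodide signal. Activity is expressed as % positive cells, thresholded with 7.5 nM rapamycin.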
Potency is the fitted concentration of half-maximal effect.

Row | Compound | activity change, negative = inhibition | Potency
1 | Cc1cccc(-c2nc(CCNC(=O)Cc3ccccc3)cs2)c1 | inactive: -3.66% | 
2 | COc1ccc(CCNC(=O)c2ccc3c(c2)N(Cc2ccc(F)cc2)C(=O)CS3)cc1OC | inactive: -4.14% | 
3 | O=C(COc1ccc(Cl)cc1)Nc1ccc2nc(SCC(=O)N3CCCC3)sc2c1 | inactive: -4.48% | 
4 | COc1ccc(OC)c(NC(=O)CSc2ccc(-c3sc(C)nc3C)nn2)c1 | inactive: -7.5% | 
5 | Cc1nn(C(=O)c2cccc(Cl)c2)c(C)c1S(=O)(=O)N1CCOCC1 | inactive: 2.41% | 
6 | CCn1c(=O)cc(SCC(=O)NCc2ccc(OC)cc2OC)c2ccccc21 | inactive: -1.23% | 
7 | CCC(=O)N1CCc2cc(S(=O)(=O)NC(CC(C)C)C(=O)NCCc3ccccc3)ccc21 (stereo unspecified) | inactive: 1.17% | 
8 | COc1ccc(CCNC(=O)C(=O)NCC(c2ccco2)S(=O)(=O)c2cccs2)cc1OC (stereo unspecified) | inactive: -2.09% | 
9 | O=C(c1nc(-c2ccc(Cl)cc2)n2c1CCCCC2)N1CCN(c2ccccc2)CC1 | inactive: -7.62% | 
10 | O=C(COc1ccccc1-c1nc(-c2ccccc2)no1)Nc1cccc([N+](=O)[O-])c1 | inactive: -14.4% | 
11 | CCOc1ccccc1NC(=O)Cn1c(=O)ccc2cc(S(=O)(=O)N3CCCC3)ccc21 | inactive: -2.95% | 
12 | CC(=O)N1CCc2nc3sc(C(=O)Nc4ccc(Cl)cc4F)c(N)c3c(C(F)(F)F)c2C1 | inactive: -4.47% | 
13 | CC(Oc1ccccc1)C(=O)Nc1nnc2n1CCS2 (stereo unspecified) | inactive: -5.22% | 
14 | COc1cc(-c2nc3nc(C)cc(C)n3c2Nc2ccc(Cl)cc2)ccc1O | inactive: -18.3% | 
15 | COC(=O)c1cccc(-n2c(CCC(=O)O)ccc2-c2cccs2)c1 | inactive: -1.28% | 
16 | COc1ccc(C(=O)Nc2ccc(-c3nnc4n3CCCCC4)cc2)cc1OC | inactive: 1.13% | 
17 | COc1ccc(Cn2c(C(=O)O)c(CNCc3ccc(C)o3)c3ccc(C)cc32)cc1 | inactive: -14.6% | 
18 | O=C(c1cc2ccc3cccnc3c2[nH]1)N1CCN(c2ccccc2)CC1 | inactive: 4.8% | 
19 | CC(C)c1nc2ccc(C(=O)NC(C)c3ccccc3)cc2o1 (stereo unspecified) | inactive: -10.6% | 
20 | O=C(NC1CCCC1)c1ccc(CSc2nc3cccnc3n2Cc2ccc(F)cc2)cc1 | inactive: -6.14% | 
21 | CCOC(=O)c1ccc2ncc3c(-c4ccccc4)nn(-c4ccc(F)c(Cl)c4)c3c2c1 | inactive: -15.7% | 

Row | Compound | activity change, negative = inhibition | Potency
22 | CCc1ccccc1N1CC(c2nc3ccccc3n2CCCCOc2ccccc2)CC1=O (stereo unspecified) | inactive: -2.68% | 
23 | Oc1ccccc1-c1nc(/C=C/c2ccc(F)cc2)nn1-c1ccccc1 | inactive: -2.47% | 
24 | CC(=O)c1ccc(N2CCN(S(=O)(=O)c3ccc4c(c3)C(C)(C)C(=O)N4)CC2)cc1 | inactive: -9.52% | 
25 | CCOc1ccc(NC(=O)CSc2ncc3c(n2)-c2ccccc2N(Cc2ccccc2C)S3(=O)=O)cc1 | inactive: 9.85% | 
26 | Cc1cc(C(=O)NCc2ccccc2Cl)c2c(C)nn(-c3ccccc3)c2n1 | inactive: 3.59% | 
27 | COc1cc(NC(=O)CSc2ncccc2C(=O)OC(C)C)cc(OC)c1 | inactive: 5.94% | 
28 | COc1ccc(CCNC(=O)CS(=O)Cc2nc(-c3ccccc3F)oc2C)cc1OC (stereo unspecified) | inactive: -4.84% | 
29 | COc1ccc(-c2nc(SCCOc3ccccc3Cl)n3[nH]c(=O)cc3n2)cc1 | inactive: 6.83% | 
30 | COc1cccc(CNC(=O)C2CCN(c3nnc(-n4c(C)ccc4C)s3)CC2)c1OC | inactive: -7.34% | 
31 | CCOc1ccc(-c2nc(CSCC(=O)NCc3ccc(Cl)cc3)c(C)o2)cc1 | inactive: -0.846% | 
32 | CCN(CC)CCNC(=O)c1ccc2c(=O)n3nc(Nc4ccccc4OC)sc3nc2c1 | inactive: -0.408% | 
33 | CC(=O)c1cc2c(cc1N/C(=N/S(=O)(=O)c1ccc(C)cc1)c1ccc(F)cc1)OCO2 | inactive: 1.95% | 
34 | CC(C)CCNC(=O)CN1C(=O)CSc2ccc(S(=O)(=O)N3CCCCC3)cc21 | inactive: 5.96% | 
35 | Cc1c(C(=O)N2CCN(c3ccccc3)CC2)sc2nc3n(c(=O)c12)CCC3 | inactive: -0.582% | 
36 | COc1ccc(CCNC(=O)c2ccc3c(c2)ncn3-c2ccc(C)cc2C)cc1OC | inactive: 0% | 
37 | CCc1ccc(S(=O)(=O)c2nnn3c2nc(NC(C)C)c2sccc23)cc1 | inactive: -3.2% | 
38 | Cc1ccc(NC(=O)c2ccc(-n3c(C)nnc3C)cc2)cc1F | inactive: -0.0622% | 
39 | CCOC(=O)c1c(-c2ccc(C)cc2)csc1NC(=O)c1nc(SC(C)C)ncc1Cl | inactive: 0.999% | 
40 | CCc1ccccc1NC(=O)C1CCCN(C(=O)c2cnn(-c3ccccc3)c2-n2cccc2)C1 (stereo unspecified) | inactive: -0.32% | 
41 | CCCc1nc(SCc2cc(=O)c3ccc(C)c(C)c3[nH]2)n[nH]1 | inactive: 0% | 
42 | COc1ccc(S(=O)(=O)N2CCN(Cc3nc4ccc(C)cc4o3)CC2)cc1Cl | inactive: -4.01% | 

Row | Compound | activity change, negative = inhibition | Potency
43 | CCC(C(=O)NCCc1ccccc1)n1nc(C)n2c(cc3sccc32)c1=O (stereo unspecified) | inactive: 1.45% | 
44 | CCOc1ccc(N2CC(NC(=O)c3ccc(S(=O)(=O)N4CCCCC4)cc3)CC2=O)cc1 (stereo unspecified) | inactive: -0.197% | 
45 | Cc1ccc(-c2cc(C(F)(F)F)n3nc(C(=O)NCC45CC6CC(CC(C6)C4)C5)cc3n2)cc1 | inactive: -0.101% | 
46 | CCOc1ccccc1NC(=O)c1c(NC(=O)c2cccc(C)c2)sc2c1CCC2 | inactive: 3.68% | 
47 | CCc1cc2c(cc3c(=O)n(CC(=O)NC4CCC(C)CC4)ncn32)s1 (stereo unspecified) | inactive: -7.77% | 
48 | COc1cc2nc(NCc3ccc(C)cc3)n3nc(-c4ccccc4)nc3c2cc1OC | inactive: 2.16% | 
49 | COc1ccc(Nc2nc(N)c3cc(OC)c(OC)cc3n2)cc1 |  | active: 18.5 µM
50 | CC1CCc2c(sc(NC(=O)C3c4ccccc4Oc4ccccc43)c2C(=O)OC(C)C)C1 (stereo unspecified) | inactive: -3.34% | 
51 | CCOC(=O)c1scc(-c2ccccc2)c1S(=O)(=O)Nc1cc(Cl)c(OC)cc1OC | inactive: -12.3% | 
52 | COC(=O)c1ccc(CSc2nc3c([nH]c4ccccc43)c(=O)n2-c2ccc(OC)cc2)o1 | inactive: -5.61% | 
53 | COc1cccc(CNC(=O)c2nn(-c3ccc(C)cc3)c(=O)c3c2c2ccccc2n3C)c1 | inactive: 4.14% | 
54 | COc1ccc(CNC(=O)c2c3c(nc4ccccc24)C(=O)N(C2CCCCC2)C3)cc1 | inactive: -11.2% | 
55 | CCOC(=O)c1oc2ccc(S(=O)(=O)n3nc(-c4ccc(Br)cc4)cc3N)cc2c1C | inactive: 0.919% | 
56 | O=C(Cc1ccccc1)NCCc1csc2nc(-c3ccc(Cl)cc3)nn12 | inactive: 6.05% | 
57 | COc1ccccc1CNS(=O)(=O)c1ccc2c(c1)NC(=O)CC(=O)N2 | inactive: 3% | 
58 | Cc1ccc(-n2nc(C)c3c(C(=O)NCc4ccccc4)cc(C4CC4)nc32)cc1 | inactive: -2.18% | 
59 | COc1ccccc1Nc1nn2c(=O)c3ccc(C(=O)N4CCCC(C)C4)cc3nc2s1 (stereo unspecified) | inactive: 9.77% | 
60 | Cc1ccc(S(=O)(=O)NCc2nc(-c3cccc(C)c3)no2)cc1 | inactive: -4.97% | 
61 | COc1ccc(C2CC(=O)N(Cc3cccc(F)c3)c3ccccc3S2)cc1 (stereo unspecified) | inactive: -0.564% | 
